Sequences and labels used below:
B1: TPR 5TU (parent)
chain: GGAUCUUCUCGAUCUAACAAAAAAGACAAAUCUGCCACAAAGCUUGAGAGCAUCUUCGGAUGCAGAGGCGGCAGCCUUCGGUGGCGCGAUAGCGCCAACGUUCUCAACUAUGACACGCAAAACGCGUGCUCCGUUGAAUGGAGUUUAUCAUG

This sample is rich in variants without activity.

Variants of B1 are the subject of this data set. As to the kind of experiment: polymerase ribozyme fitness, log enrichment relative to wild type (log ratio); higher = more active; in vitro selection for triplet polymerase activity. A digest of the protocol: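 The heterodimeric triplet polymerase ribozyme's subunits were each mutagenized into PCR-built libraries and transcribed. Every library was selected once, in triplicate, by annealing with a biotinylated primer, the partner subunit and triplets, incubating frozen at −7 °C, gel-excising extended constructs, capturing on streptavidin beads and running RT-PCR. Input and output libraries were Illumina-sequenced, with genotypes kept only at ≥10 input reads and ≥1 read per output. Fitness, from inverse-variance-weighted replicate averages, is the base-2 logarithm of genotype enrichment over wild-type enrichment.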
Consider C27A A29C C79A C87A G128C U151A, for which the “polymerase ribozyme fitness (log ratio)” value was no more than -4.2.

As for A28G A66C, the “polymerase ribozyme fitness (log ratio)” value is no more than -4.2.

On to A26U A40U U45A G50A U55A G92U C132U G143A, for which the “polymerase ribozyme fitness (log ratio)” value is no more than -4.2.

On to C27G U31A A37G C85U G141C, for which the “polymerase ribozyme fitness (log ratio)” value was no more than -4.2.

For A26G U82C C103A C125G, the “polymerase ribozyme fitness (log ratio)” value was no more than -4.2.

With A28U A39C U90G C95U G100C G126U, the “polymerase ribozyme fitness (log ratio)” value is no more than -4.2.

On to A28G A91C G126A, for which the “polymerase ribozyme fitness (log ratio)” value is no more than -4.2.

With A28C U53A A89U, the “polymerase ribozyme fitness (log ratio)” value is no more than -4.2.

As to C27A U55G A66U C72U U78G C79U A91C C105U, the “polymerase ribozyme fitness (log ratio)” value was no more than -4.2.

Turning to C27G A52G C87A, the “polymerase ribozyme fitness (log ratio)” value was no more than -4.2.

Consider C27U A41U G80C C96U G136U A138U G143U, for which the “polymerase ribozyme fitness (log ratio)” value was no more than -4.2.

On to A28G A52C U55A G67C C149G, for which the “polymerase ribozyme fitness (log ratio)” value is no more than -4.2.

For A28G A37G C87G C116U A119C, the “polymerase ribozyme fitness (log ratio)” value is no more than -4.2.

A28G C108G U139G: the “polymerase ribozyme fitness (log ratio)” value is no more than -4.2.

A28C C51A U56C C69G C79G U145C: the “polymerase ribozyme fitness (log ratio)” value is no more than -4.2.

A26U G70C G84U A89C A121G G128A: the “polymerase ribozyme fitness (log ratio)” value was no more than -4.2.

Turning to C27U G58A A60G G84U, the “polymerase ribozyme fitness (log ratio)” value is -1.42.

Regarding C27U G67A G86A G136A U145C, the “polymerase ribozyme fitness (log ratio)” value was no more than -4.2.

As for A28C C85G A106C A113C, the “polymerase ribozyme fitness (log ratio)” value was no more than -4.2.

Regarding A26U C35G A60U G68A C76G A119C A137C, the “polymerase ribozyme fitness (log ratio)” value is no more than -4.2.

In the case of A26U C114G, the “polymerase ribozyme fitness (log ratio)” value is no more than -4.2.

Consider A28U A39U C57A C87U C103U, for which the “polymerase ribozyme fitness (log ratio)” value was no more than -4.2.

On to C27A G65A G71C C93U A106G G140C, for which the “polymerase ribozyme fitness (log ratio)” value was no more than -4.2.

Take A28G G50A C57U C69A C79U C96A C105U G124A: the “polymerase ribozyme fitness (log ratio)” value is no more than -4.2.

With A26G C57U U78G G86U A107G A120U, the “polymerase ribozyme fitness (log ratio)” value is no more than -4.2.

For the variant A28C G42C C72U C87A C118U C123U C129G U135G, the “polymerase ribozyme fitness (log ratio)” value is no more than -4.2.

For C27U C63G C75A U127G A137U, the “polymerase ribozyme fitness (log ratio)” value is no more than -4.2.

On to A28C U77A C87G U144A, for which the “polymerase ribozyme fitness (log ratio)” value is no more than -4.2.

A26U C57G A66G U82A G128U G143C C149U: the “polymerase ribozyme fitness (log ratio)” value is no more than -4.2.

C27U U31C C63U G86U U102G U109A A120G U145G: the “polymerase ribozyme fitness (log ratio)” value is no more than -4.2.

Consider C27U A39G C54U U55A G74U C85U C149G, for which the “polymerase ribozyme fitness (log ratio)” value was no more than -4.2.

As for C27U C51A C54U C87U C95A G126U G133C, the “polymerase ribozyme fitness (log ratio)” value is no more than -4.2.

Consider C27U A138G U145C, for which the “polymerase ribozyme fitness (log ratio)” value was no more than -4.2.

A26U A47G C54A C95U C96G A98U: the “polymerase ribozyme fitness (log ratio)” value was no more than -4.2.

Consider C27G A29U A37G U55A A137U, for which the “polymerase ribozyme fitness (log ratio)” value was no more than -4.2.

As to A26U C103A C114U, the “polymerase ribozyme fitness (log ratio)” value was no more than -4.2.

Turning to A26U G46C C54G G62A C95G A122G, the “polymerase ribozyme fitness (log ratio)” value was no more than -4.2.

For the variant C27U C43A C75U C96U C105A, the “polymerase ribozyme fitness (log ratio)” value was no more than -4.2.

On to A28G A60C C76G, for which the “polymerase ribozyme fitness (log ratio)” value is no more than -4.2.

Regarding A26U A40G U55G G84U C96U A106G, the “polymerase ribozyme fitness (log ratio)” value was no more than -4.2.

Turning to A28C A37U C75G, the “polymerase ribozyme fitness (log ratio)” value is no more than -4.2.

Regarding A28C U33C A40G U55A G59A A60C C75G G80A C103G C116G G141C A150G, the “polymerase ribozyme fitness (log ratio)” value was no more than -4.2.

Turning to A28C G42A G58C C93A A120G, the “polymerase ribozyme fitness (log ratio)” value is no more than -4.2.

On to A26U A37G A40G C76G G81A A142C, for which the “polymerase ribozyme fitness (log ratio)” value was no more than -4.2.

Turning to A26G A49C A89U G92A U102G G140U, the “polymerase ribozyme fitness (log ratio)” value was no more than -4.2.

As to A26U C79G G86U U111C U145G U146C, the “polymerase ribozyme fitness (log ratio)” value was no more than -4.2.

Turning to C27U A49C A98G C99A C125U U148C, the “polymerase ribozyme fitness (log ratio)” value was no more than -4.2.

For C27G A29U A40C A98G C116G, the “polymerase ribozyme fitness (log ratio)” value was no more than -4.2.

Regarding A26G C72U U78G C85G, the “polymerase ribozyme fitness (log ratio)” value was no more than -4.2.

Turning to A26G G48A G50A G68U C69U C108U C125G C132G, the “polymerase ribozyme fitness (log ratio)” value is no more than -4.2.

With A28U A37C C79U C87U, the “polymerase ribozyme fitness (log ratio)” value was -3.89.

Consider A26G G68C A91U, for which the “polymerase ribozyme fitness (log ratio)” value is no more than -4.2.

In the case of A28G A40U A49C G50C C87A U144G, the “polymerase ribozyme fitness (log ratio)” value is no more than -4.2.

Consider A28G A30G G50A U90C U144C, for which the “polymerase ribozyme fitness (log ratio)” value was no more than -4.2.

For the variant A28C A52G U82C C93U C95U U134A U146G, the “polymerase ribozyme fitness (log ratio)” value is no more than -4.2.

C27G U53G U56A C76G G83A: the “polymerase ribozyme fitness (log ratio)” value was no more than -4.2.

For A26U C43G C87U, the “polymerase ribozyme fitness (log ratio)” value is no more than -4.2.

As for A26U A64G, the “polymerase ribozyme fitness (log ratio)” value is no more than -4.2.

Consider A28G U45C U56A A64U G71U C79G G83C, for which the “polymerase ribozyme fitness (log ratio)” value was no more than -4.2.

Turning to A28G U45G A47C A52C G59A G65C A89G G92C U151G, the “polymerase ribozyme fitness (log ratio)” value is no more than -4.2.

For the variant A28G A49U U56A A66U U90G A106U C108G A119G, the “polymerase ribozyme fitness (log ratio)” value was no more than -4.2.

For A28C A98G, the “polymerase ribozyme fitness (log ratio)” value was no more than -4.2.

For C27U C35A G92C A98U G117A, the “polymerase ribozyme fitness (log ratio)” value was no more than -4.2.

Turning to C27A G59C C87G A107U C114U A115G G124U G141U, the “polymerase ribozyme fitness (log ratio)” value was no more than -4.2.

As for C27G U56A, the “polymerase ribozyme fitness (log ratio)” value is -3.69.

With C27U C57A G68C C75U A91G U130G, the “polymerase ribozyme fitness (log ratio)” value was no more than -4.2.

Regarding A28C A60G C69U G74A U135G A138U G141U, the “polymerase ribozyme fitness (log ratio)” value is no more than -4.2.

As for A26U C38A C116G U127G, the “polymerase ribozyme fitness (log ratio)” value is no more than -4.2.

With A26U A40U A91U A122U, the “polymerase ribozyme fitness (log ratio)” value is no more than -4.2.

For C27U A40C G59C G92C A98G C108U C132A U151G, the “polymerase ribozyme fitness (log ratio)” value is no more than -4.2.

Regarding A28C A39C U55A U56A C96G C105U U111A, the “polymerase ribozyme fitness (log ratio)” value is no more than -4.2.

For A26U U45A G68A C72U C87A, the “polymerase ribozyme fitness (log ratio)” value is no more than -4.2.

Regarding C27G C51A A52C C87G C96U C108A, the “polymerase ribozyme fitness (log ratio)” value was no more than -4.2.

In the case of A26G A89U, the “polymerase ribozyme fitness (log ratio)” value was -4.16.

With A26G U31A C96A, the “polymerase ribozyme fitness (log ratio)” value was no more than -4.2.

For A28C C87G U139G, the “polymerase ribozyme fitness (log ratio)” value was no more than -4.2.

In the case of C27A U45G G46A A60U C95G G124U, the “polymerase ribozyme fitness (log ratio)” value is no more than -4.2.

Take A28U A37C G59U U61A U77G U78G C95U C103U C149U A150G: the “polymerase ribozyme fitness (log ratio)” value was no more than -4.2.

Consider C27U A47G A52C G83A U146G, for which the “polymerase ribozyme fitness (log ratio)” value was -3.62.

Regarding A26U A64U G71A C85A A98C A142U, the “polymerase ribozyme fitness (log ratio)” value was no more than -4.2.

Consider A26U C35A, for which the “polymerase ribozyme fitness (log ratio)” value was no more than -4.2.

For the variant C27U A91G C99G A147C, the “polymerase ribozyme fitness (log ratio)” value is no more than -4.2.

Turning to C27A A52G U55A C75G C95A A98U, the “polymerase ribozyme fitness (log ratio)” value was no more than -4.2.

Turning to C27U C93U A138C, the “polymerase ribozyme fitness (log ratio)” value is no more than -4.2.

(Values after the RNAGym collection of RNA variant scans (doi:10.1073/pnas.2313332121).)
